# Assay results published in paper PMC6919601, “Identification of Plasmodium dipeptidyl aminopeptidase allosteric inhibitors by high throughput screening” (PLoS ONE, 2019).
# “And” between values parts separate entries of the source, which are not always exact repeats. Identical values can stand only once. The campaign covered roughly 110,000 compounds. About 230 (0.21%) showed an effect of 50% or more. The list shows a part of the results.
# Biological target: DPAP1 (Plasmodium falciparum, UniProt Q8IIJ9)
# Sequence (Q8IIJ9 whole entry, looked up): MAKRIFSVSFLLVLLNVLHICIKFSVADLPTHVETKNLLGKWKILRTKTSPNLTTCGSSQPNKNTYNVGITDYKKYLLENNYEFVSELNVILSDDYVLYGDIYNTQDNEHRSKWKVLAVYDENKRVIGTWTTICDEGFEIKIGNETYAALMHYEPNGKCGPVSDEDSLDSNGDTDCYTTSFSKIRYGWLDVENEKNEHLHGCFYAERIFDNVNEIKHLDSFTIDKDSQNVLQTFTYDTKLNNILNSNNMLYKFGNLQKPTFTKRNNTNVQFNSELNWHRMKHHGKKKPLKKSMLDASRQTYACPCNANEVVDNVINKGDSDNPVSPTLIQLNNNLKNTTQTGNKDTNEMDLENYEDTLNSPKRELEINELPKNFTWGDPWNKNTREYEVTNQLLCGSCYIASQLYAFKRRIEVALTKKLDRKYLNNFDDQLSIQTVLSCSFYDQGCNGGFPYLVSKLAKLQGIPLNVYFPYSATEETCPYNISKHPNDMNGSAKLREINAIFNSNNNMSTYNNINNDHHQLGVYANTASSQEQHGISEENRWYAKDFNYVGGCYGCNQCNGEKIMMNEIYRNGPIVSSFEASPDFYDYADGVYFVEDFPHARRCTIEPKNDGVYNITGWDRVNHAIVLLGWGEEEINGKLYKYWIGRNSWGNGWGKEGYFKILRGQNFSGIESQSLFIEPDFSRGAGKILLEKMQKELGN
# Experiment: primary screen, percent inhibition; read by cleavage of a fluorogenic dipeptide substrate; higher = more effect of the substance
# Design: species or system P. falciparum D10 trophozoite lysates; single well
# 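Note: 30 min substrate incubation versus DMSO and 10 µM JCP410 controls.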
row,Structure (SMILES),% Inhibition @ 10 uM
1,O=C1CC(N2CCCCCC2)C(=O)N1c1ccc(F)cc1 (stereo not drawn),0.361%
2,CC1CCN(C(=O)COCc2cc(-c3ccc(F)cc3)on2)CC1,-6.13%
3,COCCCNC(=O)CS(=O)Cc1nc(-c2cccc(Cl)c2)oc1C (stereo not drawn),2.16%
4,COc1cccc(C2C(C#N)=C(N)Oc3[nH]nc(-c4ccccc4F)c32)c1 (stereo not drawn),-7.55%
5,CC[n+]1c(/C=C/c2ccc3c(c2)OCO3)sc2ccc(OC)cc21,2.04%
6,COc1ccccc1NC(=O)c1ccccc1NC(=O)CCc1ccccc1,-1.84%
7,CCC1CCCCN1C(=O)CSc1nc(O)c2cnn(-c3ccc(C)cc3)c2n1 (stereo not drawn),6.63%
8,CC1CCCC(NC(=O)c2cc(S(=O)(=O)N3CCOCC3)ccc2F)C1C (stereo not drawn),-3.78%
9,Cc1noc(/C=C/c2ccco2)c1S(=O)(=O)N1CCC(C(=O)N2CCN(C)CC2)CC1,2.14%
10,Oc1ccc(C2Nc3cc(Cl)c(Cl)cc3N2)c(O)c1,-9.83%
11,N#C/C(=C\c1ccc(N2CCOCC2)cc1)c1nc2ccccc2[nH]1,-2.18%
12,COc1c(C(=O)N[C@@H](CC(C)C)C(=O)NCC#N)csc1Br,-8.26%
13,COc1ccc(C2NC(=O)c3cnn(-c4ccccc4)c3N2)cc1COc1ccccc1C (stereo not drawn),-3.13%
14,CCNc1nc(NC(C)C)nc(Oc2ccc(OCCOc3ccccc3)nn2)n1,-0.178%
15,COC(=O)C1=C(C)N(C)C(C)=C(C(=O)OC)C1c1ccccc1C(F)(F)F,-2.39%
16,CCCOc1ccc(C2C(C#N)=C(C)N=C3CC(C)(C)CC(O)=C32)cc1OC (stereo not drawn),-1.99%
17,CCOC(=O)N1CCC2(CC1)OC(=O)C(C)=C2C(=O)NCCOC,1.34%
18,CCOc1cc(C2CC(=O)NC3=C2C(=O)CCC3)ccc1OC(C)C (stereo not drawn),3.11%
19,CC1(C)Cc2c(sc3nc(SCC(=O)c4ccccc4)nc(N)c23)CO1,-6.39%
20,CC1CCC(NC2CCN(Cc3ccccc3)CC2)C1 (stereo not drawn),3.35%
21,O=C(c1ccccc1)c1ccccc1C(=O)N1CCCC1,0.316%
22,CCOc1ccccc1CN(C)C1CCN(C)CC1,4.66%
23,OCCOCCN1CCN(C2C3CC4CC(C3)CC2C4)CC1 (stereo not drawn),-0.0908%
24,Cc1ccc(S(=O)(=O)N(CC(=O)N2CCCCC2)c2cccc(C)c2)cc1,-3.58%
25,Cc1n[nH]c(C)c1CCc1nc2c3ccccc3nc(NCCC(C)C)n2n1,2.6%
26,O=C(O)C(NC(=O)c1ccccc1)=C1CCCCC1,-2.97%

row,Structure (SMILES),% Inhibition @ 10 uM
1,COCCn1c(SCC(N)=O)nc2c(c1=O)SCC2,-1%
2,COc1ccccc1C1C(C#N)=C(N)Oc2c1c(C)nn2-c1ccc(C)cc1 (stereo not drawn),0.746%
3,CCN(CCN(C)C)Cc1ccc(O)cc1,5.2%
4,Cc1ccc2oc(=O)c3cc(C(=O)NCCN4CCc5ccccc5C4)sc3c2c1,7.78%
5,COc1ccc(C2=N/C(=C\c3coc4ccccc4c3=O)C(=O)O2)cc1Br,0.0932%
6,O=C(NCc1ccco1)Nc1cnc2ccccn2c1=O,3.66%
7,CCOc1ccc(C2(C)CC(=O)N(C)C2=O)cc1 (stereo not drawn),-0.424%
8,COc1ccc(C(=O)Nc2ccc(C(C)=O)cc2)cc1,6%
9,CCCCN1C(=O)c2cccc3c(S(=O)(=O)N4CCCC4C(=O)O)ccc1c23 (stereo not drawn),-11.2%
10,c1ccc(OC[C@@H]2CCCN3CCCCC23)nc1 (stereo partly drawn),-1.52%
11,Cc1cc2c(cc3c(=O)n(CC(=O)NC(C)CCc4ccccc4)ncn32)s1 (stereo not drawn),-1.7%
12,COC(F)(C(=O)Nc1nc(-c2ccc(C)cc2)cs1)C(F)(F)F (stereo not drawn),-3.71%
13,COc1c(N)cc2c(C)c(C(=O)N3CCOCC3)oc2c1OC,0.00178%
14,CC(C)(C)c1ccccc1OCCCCCN1CCCC1,-4.3%
15,COC(=O)c1cn(C(=O)COc2ccccc2C)c2ccccc12,-2.65%
16,CC(C)(C)C(=O)Nc1cccc(NC(=O)C(C)(C)C)c1,-1.88%
17,C=CCS(=O)(=O)Nc1ccc(OC)cc1,0.132%
18,CCC1(CC)Cc2ccccc2C2=C(C(=O)N3CCCC3)C(=O)C(=O)N21,-2.67%
19,CC1=NN(C(=O)c2ccncc2)C(O)(c2cccnc2)C1 (stereo not drawn),-5.23%
20,CC(Cc1ccccc1)NC(=O)/C=C/C(=O)O (stereo not drawn),0.736% and -3.38%
21,Cc1cccc(-c2noc(-c3cccs3)n2)c1,-5.7%
22,Cc1ccccc1-c1nc(CN2CCC(C(=O)NC3CCCC(C)C3C)CC2)c(C)o1 (stereo not drawn),5.56%
23,O=C(Cn1cnc2c(nc3n2CCCCC3)c1=O)NC1CCCCCC1,-0.238%
24,CC1=C(CCN2CCN(CCO)CC2)C(C)(C)CCC1,-3.72%
25,COc1ccc(Nc2nc(-c3ccccn3)cs2)cc1,0.345%
26,CCCCN(C)CCNC(=O)C1c2ccccc2C(=O)N(C)C1c1cn(C)c2ccccc12 (stereo not drawn),-7.98%

row,Structure (SMILES),% Inhibition @ 10 uM
1,Cc1ccc(-n2ncc3c(O)nc(SCC(=O)O)nc32)cc1,-1.54%
2,O=C1NCCc2c1[nH]c1c(Br)cc3c(c21)OCCO3,1.04%
3,COc1ccc(C2=NN(CCC(=O)NC(C)(C)C)C(=O)CC2)cc1,-4.53%
4,COc1cccc2c1OC1(C)CC2/C(=C(\C)O)C(=O)N1 (stereo not drawn),-11.9%
5,COc1ccc(CCNC(=O)CCc2nnc3ccc(N4CCOCC4)nn23)c(OC)c1,-1.2%
6,COc1c(O)cnn(C2CCCCC2)c1=O,-4.15%
7,NC(=O)c1c(-c2ccc(F)cc2)noc1N,3.54%
8,Cc1cc(C)cc(OCC(=O)Nc2ccc(S(=O)(=O)NC(C)(C)C)cc2)c1,6.15%
9,NS(=O)(=O)c1ccc(CCNC(=O)c2cccc(Br)c2)cc1,4.16%
10,COc1ccc(-c2cn3c(n2)sc2cc(C(=O)N4CCC(N5CCCCC5)CC4)ccc23)cc1,19.3%
11,c1ccc(CCN2CCC(N3CCCCCC3)CC2)cc1,-1.81%
12,CCCCOc1ccc(-c2ncc(C(=O)OCC)c(Cl)n2)cc1,5.23%
13,C=CCn1c(NC(=O)CC)nc2ccccc21,-13%
14,CCN(CC)c1ccc(/C=C2/NC(=O)N(Cc3ccc(C)cc3)C2=O)cc1,-6.47%
15,O=C(NCc1ccncc1)c1cc(=O)c2cc(Cl)ccc2o1,-5.08%
16,O=[N+]([O-])c1ccccc1CN1CCCC1,-7.34%
17,Cc1ccccc1S(=O)(=O)Cc1ccc(C(=O)NC(C)CCc2ccccc2)o1 (stereo not drawn),-3.09%
18,Cn1c(SCC(=O)Nc2nnc(Cc3ccccc3)s2)nc2sc3c(c2c1=O)CCCC3,-3.34%
19,COc1ccc(N2CCN(C(=O)c3ccc(C#CC(C)(C)O)o3)CC2)cc1,2.79%
20,CCc1nnc2[nH]c(=O)n(C)c(=O)c2n1,0.569%
21,Cc1cccc(OCCSc2nc3ccccc3n2CC(=O)O)c1,1.76%
22,C=CCOc1cc(Br)c(/C=C2\NC(=O)N(Cc3ccc(Cl)cc3)C2=O)cc1OC,-4.93%
23,COc1ccc(C2C3=C(CC(C)(C)CC3=O)N(CC(=O)O)C3=C2C(=O)CC(C)(C)C3)cc1OC,-5.67%
24,CCCc1ccc(C#N)c(SCC(=O)Nc2ccc(OC)cc2)n1,1.82%
25,O=C1/C(=C/c2cc([N+](=O)[O-])cc(Br)c2O)Sc2ccccc21,-2.42%
26,CC(OC(=O)c1ccc([N+](=O)[O-])cc1)C(N)=O (stereo not drawn),0.98%

row,Structure (SMILES),% Inhibition @ 10 uM
1,N#CC1(NC(=O)[C@H](Cc2cc(I)c(O)c(I)c2)NC(=O)c2ccc(N3CCOCC3)cc2)CC1,-1.41%
2,CCC1(C)Oc2ccccc2C2CC(c3ccccc3)=NN21 (stereo not drawn),-2.87%
3,O=C(Nc1cccc(O)c1)/C(=C/c1ccccc1Cl)NC(=O)c1ccccc1,-5.79%
4,CCC(C)NC(=O)C(C)Oc1cccc(Cl)c1 (stereo not drawn),-0.884%
5,Cc1cc2sc(NC(=O)c3cccs3)nc2cc1Cl,0.83%
6,COCc1cc(C)nc2sc(C(=O)OC)c(-n3cccc3)c12,2.7%
7,CCOc1cc(CNS(=O)(=O)c2ccc3[nH]c4c(c3c2)CCCC4)cc(OCC)c1OCC,-1.41%
8,c1ccc(N2CCN(Cc3ccsc3)CC2)nc1,-3.71%
9,CCOC(=O)c1c(NC(=O)CSc2nc(C)c(Cc3ccc(O)cc3)[nH]2)sc2c1CCCC2,3.47%
10,O=C(NCc1ccc(F)cc1)C1CCCN(c2ncnc3c2nc2n3CCCCC2)C1 (stereo not drawn),1.9%
11,O=C1NC(c2ccc3c(c2)OCO3)Nc2sc3c(c21)CCCC3 (stereo not drawn),2.7%
12,CC1CCN(c2nc3nonc3nc2N2CCC(C)CC2)CC1,-1.11%
13,O=C1CC(c2ccccc2OCc2ccccc2)C2=C(CCCC2=O)N1 (stereo not drawn),12.4%
14,CC(=O)NCc1cn2c(C)csc2n1,0.953%
15,CN(C)/C=C1\C(=O)c2ccc(N(C)C)nc2CC1c1ccccc1 (stereo not drawn),0.774%
16,CC1(C)CC(n2nc(O)c3c2NC(=O)CSC3c2ccc(F)cc2)CCO1 (stereo not drawn),-5.91%
17,COc1cc(C2=N/C(=C\C(C)=C\c3ccccc3)C(=O)O2)cc(OC)c1OC,-7.76%
18,COc1cc2c(cc1OC)CN(Cc1ccccc1Br)CC2,-3.65%
19,CC(C)Oc1ccc(C(=O)Nc2cccc(Cl)c2)cc1,-7.28%
20,COc1ccc(Br)cc1CN1CCc2ccccc2C1,3.1%
21,CCOC(=O)c1c(C=O)c(C)n(C)c1C,-3.78%
22,Cc1cccc2nc(-c3cccc(NC(=O)Cc4ccccc4)c3)cn12,-2.46%
23,CC1(C)CC(OC(=O)c2ccco2)CC(C)(C)N1OC(=O)CCCN1C(=O)c2ccccc2C1=O,2.18%
24,Cn1c2ccccc2c2c(C(=O)N3CCOCC3)cn(C3CCCCC3)c(=O)c21,4.87%
